For this series, the system named is ATP. Put plainly: switch fluorescence ratio, 500 uM ATP over buffer (Cy3 cluster intensity, sum of 5 cycles each) (fold (ratio)); higher = stronger signal-on switching upon ATP binding; sequences stand for … in TCGTCGGCAGCGTCAGATGTGTATAAGAGACAGTTTTTTTTTTTTTTTTTTTTTTTTT…TC. Particulars: aptamer strand: ATP DNA aptamer (quencher-CACCTGGGGGAGTATTGCGGAGGAAGG + anchor), 100 nM annealed; ATP concentration: 500 uM; one replicate. An outline of the steps: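 The fluorescence ratio divides summed target-cycle Cy3 intensity by summed buffer-cycle Cy3 intensity for each cluster and is averaged per switch-domain sequence. Cy3-labelled switching-strand clusters on a modified Illumina MiSeq flow-cell were annealed to 100 nM quencher-labelled ATP aptamer, then imaged in selection buffer and again after 15 min with 500 uM ATP at 22 °C. Five such cycles were run, with NaOH stripping and re-annealing between them, and clusters outside 100-1000 RFU were excluded.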

Sequences with one replicate were seen in a single cluster, so their values are uncertain.
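Also: ATP exposure 15 min at 22 °C before imaging.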

For the sequence CCCCTGCATG, the switch fluorescence ratio is 2.25.

Take AAAGGCGGA: the switch fluorescence ratio amounted to 1.05.

Consider CCTGTACTGG, for which the switch fluorescence ratio came out at 1.06.

As for TATGGAGCA, the switch fluorescence ratio was found to be 1.17.

With CGACCGAGCG, the switch fluorescence ratio came out at 1.05.

Regarding TCCGGTCTGT, the switch fluorescence ratio came to 1.04.

Regarding TCATTCCAGT, the switch fluorescence ratio turned out to be 1.02.

Consider AAAATCAATC, for which the switch fluorescence ratio was found to be 0.996.

TATGTTCAGT: the switch fluorescence ratio was 0.996.

For the sequence GTCTAACAGT, the switch fluorescence ratio came out at 0.977.

Consider CCAACGGCAC, for which the switch fluorescence ratio was determined as 2.18.

As to GGATCGGACA, the switch fluorescence ratio came to 0.963.

As for CTCCGGGGG, the switch fluorescence ratio is 1.

On to GTTATACCAG, for which the switch fluorescence ratio worked out at 1.03.

AGTACTAGCC: the switch fluorescence ratio is 1.01.

Turning to CGTATGTACA, the switch fluorescence ratio came to 1.02.

With CTGCTCTCGG, the switch fluorescence ratio was determined as 1.04.

As to TACTACAAAT, the switch fluorescence ratio came out at 1.06.

Consider ACAACGCCTC, for which the switch fluorescence ratio was 1.27.

As for TATCAATATA, the switch fluorescence ratio stood at 0.974.

On to AGATCTCAAT, for which the switch fluorescence ratio worked out at 0.986.

Regarding CTTCTGTTAA, the switch fluorescence ratio turned out to be 1.03.

For the sequence CTTAAGGAGA, the switch fluorescence ratio was determined as 1.04.

GACTCTGCGT: the switch fluorescence ratio came to 1.71.

As to TATGTGTTAA, the switch fluorescence ratio worked out at 1.01.

On to AGGTTGCATA, for which the switch fluorescence ratio was 0.987.

Regarding ACGTGATCCG, the switch fluorescence ratio was found to be 1.01.

Take ATTTGCAGCG: the switch fluorescence ratio was determined as 0.996.

Take TCCTTGAGAG: the switch fluorescence ratio stood at 1.03.

As to AAGGGCCTCT, the switch fluorescence ratio was 1.02.

Regarding TGTCTGTAAT, the switch fluorescence ratio was determined as 1.

TATTTGATCG: the switch fluorescence ratio is 1.02.

Regarding TGTGTGCTAA, the switch fluorescence ratio was 1.05.

Regarding TGGCGGATTG, the switch fluorescence ratio stood at 0.99.

As to GGTGCCGGGC, the switch fluorescence ratio came to 0.964.

On to AGTCGACCTG, for which the switch fluorescence ratio was 0.991.

As for CTAGGGACTG, the switch fluorescence ratio was found to be 1.05.

Regarding GTAGTTCTGT, the switch fluorescence ratio is 1.03.

Take CGTGGACATC: the switch fluorescence ratio amounted to 0.966.

For GCACCGGGGT, the switch fluorescence ratio was 0.958.

On to TAAGAAGAGA, for which the switch fluorescence ratio is 0.998.

For GCAGGGTA, the switch fluorescence ratio worked out at 0.977.

TTTCATCTC: the switch fluorescence ratio worked out at 0.995.

Take TGAAAGCTCT: the switch fluorescence ratio came to 0.984.

Regarding AAGGTGCTTT, the switch fluorescence ratio is 1.2.

Consider TAAGCATTCT, for which the switch fluorescence ratio came out at 0.99.

Regarding TGAAGTATTA, the switch fluorescence ratio amounted to 0.999.

In the case of GACTTTGTCC, the switch fluorescence ratio is 0.973.

Regarding CACTAGGTCA, the switch fluorescence ratio came out at 0.95.

For GTATTAGGG, the switch fluorescence ratio was 0.964.

In the case of GGTGGCGGTC, the switch fluorescence ratio worked out at 0.985.

For the sequence TATCAGCCCG, the switch fluorescence ratio was found to be 1.

TCAGTGAGGG: the switch fluorescence ratio amounted to 0.979.

Take CTCGTACTAG: the switch fluorescence ratio is 0.983.

ATATACAGTT: the switch fluorescence ratio was 1.04.

With CCACTATGTG, the switch fluorescence ratio stood at 1.01.

As for GGTACTCCCA, the switch fluorescence ratio turned out to be 1.31.

With GAATCAGACA, the switch fluorescence ratio was determined as 0.968.

As to GTTATACAGA, the switch fluorescence ratio came to 0.925.

As to GCAAGGTGGA, the switch fluorescence ratio was determined as 0.976.

Consider CCCAAATAGG, for which the switch fluorescence ratio was 1.04.

For the sequence ACATCAATCG, the switch fluorescence ratio is 1.08.

Regarding AAGTATAGTA, the switch fluorescence ratio came to 0.937.

On to GGGCGTTCGG, for which the switch fluorescence ratio is 0.977.

For AGTTTTGCTT, the switch fluorescence ratio was found to be 0.953.

On to AGCGCTTGAT, for which the switch fluorescence ratio amounted to 0.975.

For the sequence GCGTACAGTA, the switch fluorescence ratio came to 1.06.

Values taken from the supplement of paper PMC10126150.
